# From the RNAGym collection of RNA variant scans (doi:10.1093/nar/gkz1192)
# Read counts are not given, so values of variants with three or more changes are uncertain.
# B1: CPEB3 Ribozyme (parent)
# chain: UAACAGGGGGCCACAGCAGAAGCGUUCACGUCGCAGCCCCUGUCAGAUUCUGGUGAAUCUGCGAAUUCUGCUGUAUAUCUC
# Variants of: B1
# Test: self-cleavage, relative activity (ratio to wild type); higher = more cleavage; in vitro, sequencing
# Method in brief: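 Libraries of CPEB3 self-cleaving ribozyme mutants came from rounds of error-prone PCR and carried barcodes, which DNA sequencing matched to variants. In vitro transcription used T7 RNA polymerase at 37°C for 5 hours, with a further 15 min in DNase I before EDTA stopped the reaction; the ribozymes cleaved during both steps. The RNA was reverse transcribed with template switching and sequenced on Illumina. Relative activity is the cleaved/total read fraction of a variant divided by that of the unmutated ribozyme, averaged over three batches with at least 5 reads.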
row,Variant,self-cleavage
1,UAACAGGGGGCCACAGCUGAAGGGUUCACGUCGCAGCCCCCGUCGGAUUCUGGUGAAUCCGCGAGUUCUGCUGUAUAUCUC [A18U C23G U41C A45G U60C A65G],0.05
2,UAACAGGGGGCCACAGCUGAAGUGUUCACGUCGCAGCCCCUGUCAGAUUCUGGUGAAUCUGCGGGUUCUGCUGUAUAUCUC [A18U C23U A64G A65G],0.05
3,UAACAGGGGGCCACAGCUGAAGUGUUCACGUUGCAGCCCCUGUCAGAUAGUGGUGAAUCUGCGCAUUCUGCUGUAUAUCCC [A18U C23U C32U U49A C50G A64C U80C],0.04
4,UAACAGGGGGCCACAGCUGAAGUGUUCACGUCGUUGCCCCUGUCAGAUUCUGGUGAAUCUGCGAGUUCUGCUGUAUAUCUC [A18U C23U C34U A35U A65G],0.21
5,UAACAGGGGGCCACAGCUGAAGUGUUCACGUCGCAGCCCCCGUCGGAUUCUGGUGAAUCUGCGAAUUCUGCUGCAUAUCUC [A18U C23U U41C A45G U74C],0.06
6,UAACAGGGGGCCACAGCUGAAGUGUUCACGUCGCAGCCCCCGUCAGACUCUGGUGGAUCUGCGAAUUCUGCUGUAUAUCUC [A18U C23U U41C U48C A56G],0.11
7,UAACAGGGGGCCACAGCUGAAGCGUUAACGUCGGAGCCCCUGUCAGAUUCUGGUGAAUCUGCGAAUUCUGCCGUAUAUCUC [A18U C27A C34G U72C],0.11
8,UAACAGGGGGCCACAGCUGAAGCGUUAACGCCGCAGCCCCUGUCAGAUUCUGGUGAAUCUGCGAAUUCUGCUGUAUACCUC [A18U C27A U31C U78C],0.35
9,UAACAGGGGGCCACAGCUGAAGCGUUGACGUCGCGGCCCCUGUCAGAUUCUGGUGAAUCUGCGAAUUCUGCUGUAUAUCUC [A18U C27G A35G],0.16
10,UAACAGGGGGCCACAGCUGAAGCGUUGACGUCGCAGCCCCUGUCGGAUCCAGGUGAAUCUGCGAAUUCUGCCGUAUACCUC [A18U C27G A45G U49C U51A U72C U78C],0.13
11,UAACAGGGGGCCACAGCUGAAGCGUUGACGUCGCAGCCCCUGUCGGAUUCAGGUGAAUCUGCGAAUUCUGCCGUAUACCUC [A18U C27G A45G U51A U72C U78C],0.05
12,UAACAGGGGGCCACAGCUGAAGCGUUUACGUCGCGGCCCCUGUCAGAUUCUGGUGAAUCUGCGAAUUCUGCUGUAUAUCUC [A18U C27U A35G],0.13
13,UAACAGGGGGCCACAGCUGAAGCGUUUACAUCGCAGCCCCUGUCAGAUUCAGGUGAAUCUGCGAAUUCUGCCGUAUAUCCC [A18U C27U G30A U51A U72C U80C],0.21
14,UAACAGGGGGCCACAGCUGAAGCGUUCAAGUCGCGGCCCCUGUCGGGUUCUGGUGAAUCUGCGAAUUCUGCUGUGUAUCUC [A18U C29A A35G A45G A47G A75G],0.14
15,UAACAGGGGGCCACAGCUGAAGCGUUCAUGUCGCUGCCCCUGUCAGAUUCCGGUGAAUCUGCGAAUUCUGCUGUAUAUCUC [A18U C29U A35U U51C],0.08
16,UAACAGGGGGCCACAGCUGAAGCGUUCAUGUCGCAGCCCCUGCCAGAUUCUGGUGAAUCUGCGAAUUCUGCUGUAUAUCUC [A18U C29U U43C],0.08
17,UAACAGGGGGCCACAGCUGAAGCGUUCAUGUCGCAGCCCCUGUCAGAUUCUGGUGAAUCUGCGAAUACUGCUGUAUAUCUC [A18U C29U U67A],0.11

row,Variant,self-cleavage
1,UAACAGGGGGCCACAGCUGAAGCGUUCACGUAGCAGCCCCUGUCGGAUUCCGGUGAAUCUGCGAAUUCUGCUGUAUAUCUC [A18U C32A A45G U51C],0.34
2,UAACAGGGGGCCACAGCUGAAGCGUUCACGUAGCAGCCCCUGUCUGAUCCUGGUGGAUCUGCGAAUUCUGCUGUAUAUCUC [A18U C32A A45U U49C A56G],0.05
3,UAACAGGGGGCCACAGCUGAAGCGUUCACGUAGCAGCCCCUGUCAGAUUCUGGUGAAUCUGCGAAUUCUGCUGUAUACCCC [A18U C32A U78C U80C],0.14
4,UAACAGGGGGCCACAGCUGAAGCGUUCACGUGGCAGCCCAUGUCAGAUUCUGGUGAAUCAGCGAAUUCUGCAGUAUAUCUC [A18U C32G C40A U60A U72A],0.07
5,UAACAGGGGGCCACAGCUGAAGCGUUCACGUUGCAGCCCCUGUCGGACUCUGGUGAAUCUGCGAAUUCUGCUGUAUAUCUC [A18U C32U A45G U48C],0.06
6,UAACAGGGGGCCACAGCUGAAGCGUUCACGUUGCAGCCCCUGUCAGAUUCUGGUGAAUCUGCGAGUCCUGCUGUAUACCUC [A18U C32U A65G U67C U78C],0.04
7,UAACAGGGGGCCACAGCUGAAGCGUUCACGUUGCAGCCCCUGUCAGAUUCUGGUGAAUCUGCGAAUUAUGCUGUAUAUCUC [A18U C32U C68A],0.08
8,UAACAGGGGGCCACAGCUGAAGCGUUCACGUCGAAGCCCCCGUCAGAUUCUGGUGAAUCUGCGAAUUCUGCUGUAUAUCUC [A18U C34A U41C],0.22
9,UAACAGGGGGCCACAGCUGAAGCGUUCACGUCGGAGCCCCUGUCAGACUCUGGUGAAUCUGCGAAUUCUGCUGAAUAUCUC [A18U C34G U48C U74A],0.05
10,UAACAGGGGGCCACAGCUGAAGCGUUCACGUCGUAGCUCCUGUCAGAUUCUGGUGAAUCUGCGAAUCCAGCUGUACAUCUC [A18U C34U C38U U67C U69A U76C],0.06
11,UAACAGGGGGCCACAGCUGAAGCGUUCACGUCGUAGCCCCAGUCAGAUUCUGGUGGAUCUGCGAAUUCUGCUGUAUAUCUC [A18U C34U U41A A56G],0.17
12,UAACAGGGGGCCACAGCUGAAGCGUUCACGUCGCAGGCCCUGUCAGAUACUGGCGAACCUGCGAAUUCUGCUGUAUCUCUC [A18U C37G U49A U54C U58C A77C],0.06
13,UAACAGGGGGCCACAGCUGAAGCGUUCACGUCGCAGUCCCAGUCAGAUUCUGGUCAAUCUGCGAAUUCCGCAGUAUAUCUC [A18U C37U U41A G55C U69C U72A],0.12
14,UAACAGGGGGCCACAGCUGAAGCGUUCACGUCGCAGUCCCCGUCAGAUUCUGGUGAACCUGCGAAUUCUGCUGUAUAUCUC [A18U C37U U41C U58C],0.1
15,UAACAGGGGGCCACAGCUGAAGCGUUCACGUCGCAGCGCCUGUCUGAUUCUGGUGAAUCUGCGAAUUCUGCUGUAUAUCUU [A18U C38G A45U C81U],0.21
16,UAACAGGGGGCCACAGCUGAAGCGUUCACGUCGCAGCGCCUGUCAGGUUCUGGUGAAUCUGCGAAUUCUGCUGUAUAUCUU [A18U C38G A47G C81U],0.21
17,UAACAGGGGGCCACAGCUGAAGCGUUCACGUCGCAGCUCCUGUCAGGUUCUGGUGAAUCUGCGAAUUCUGCAGUAUAUCUC [A18U C38U A47G U72A],0.05
